Ki data for 41 molecules are collected here from US8067379B2, “Sulfur compounds as inhibitors of hepatitis C virus NS3 serine protease” (Schering Corporation, priority 2004, dated 2011).

Starred links: 1 amine or outer side, 2 acyl side, 3 side chain; linkers in the order of their positions; H or OH if unused. Non-standard residues stand in square brackets, D forms with d. Residues, ends and D or L forms follow the SMILES beside them. *: point of attachment. Pro(3R,4S-CMe2) = CC1(C)[C@@H]2[C@@H](C(=O)O)NC[C@@H]21; Gly(1-Me-cHex) = CC1([C@H](N)C(=O)O)CCCCC1; X2 = O=C(C(=O)[*:2])C(CC1CC1)N[*:1]; X3 = CC(C)(C)S(=O)(=O)CC1(N*)CCCCC1; Phg = N[C@H](C(=O)O)c1ccccc1; CO = O=C([*:1])[*:2] Some results are limits rather than exact numbers.

The first assay has as its target Recombinant heterodimeric HCV NS3/NS4A protease (strain 1a) (Hepatitis C virus genotype 1a, UniProt P27958). Put plainly: Spectrophotometric assay for HCV serine protease inhibitory activity (chromogenic ester substrates). Format: biochemical. As to conditions: Table 3, sulfone compounds, rows without Prep. Ex. number; read-out: Ki* (numeric value, unlabelled structures at end of sulfone table, column without head).
One may read the Ki as a dissociation constant, usually derived from enzyme kinetics or from competition with a known ligand. For the molecule `C=CCNC(=O)C(=O)C(CCC(F)F)NC(=O)[C@@H]1[C@@H]2[C@H](CN1C(=O)[C@@H](NC(=O)NC1(CS(=O)(=O)C(C)(C)C)CCCCC1)C1(C)CCCCC1)C2(C)C` (some centres unmarked), the Ki was 6 nM.

For `C=CCNC(=O)C(=O)C(CCCC)NC(=O)[C@@H]1[C@@H]2[C@H](CN1C(=O)[C@@H](NC(=O)NC1(CS(=O)(=O)C(C)(C)C)CCCCC1)C1CCCCC1)C2(Cl)Cl` (some centres unmarked), the Ki came out at 5 nM.

Still in this assay, the particulars now being: Table 3, sulfone compounds; HCV serine protease; read-out: Ki* range.
`CC(C)(C)[C@H](NC(=O)NC1(CS(C)(=O)=O)CCCCC1)C(=O)N1C[C@H]2[C@@H]([C@H]1C(=O)NC(CC1CC1)C(=O)C(N)=O)C2(C)C` (some centres unmarked) [Compound 161]: the Ki is less than 75 nM.

In the case of `CC(C)[C@@H](CS(=O)(=O)c1ccccc1)NC(=O)N[C@H](C(=O)N1C[C@H]2[C@@H]([C@H]1C(=O)NC(CC1CCC1)C(=O)C(N)=O)C2(C)C)C(C)(C)C` (some centres unmarked) [Compound 143], the Ki is less than 75 nM.

For `CC(C)(C)[C@H](NC(=O)NC1(CS(C)(=O)=O)CCCCC1)C(=O)N1C[C@H]2[C@@H]([C@H]1C(=O)NC(CC1CC1)C(=O)C(N)=O)C21CCCC1` (some centres unmarked) [Compound 213], the Ki was less than 75 nM.

Regarding `C=CCNC(=O)C(=O)C(CC1CC1)NC(=O)[C@@H]1[C@@H]2[C@H](CN1C(=O)[C@@H](NC(=O)NC1(CS(=O)(=O)C(C)(C)C)CCCCC1)C(C)(C)C)C21CC1` (some centres unmarked) [Compound 291], the Ki was less than 75 nM.

`C#CCCC(NC(=O)[C@@H]1[C@@H]2[C@H](CN1C(=O)[C@@H](NC(=O)NC1(CS(=O)(=O)Cc3ccco3)CCCCC1)C(C)(C)C)C2(C)C)C(=O)C(=O)NCC=C` (some centres unmarked) [Compound 237]: the Ki is less than 75 nM.

Regarding `C=CCNC(=O)C(=O)C(CCC)NC(=O)[C@@H]1CCCN1C(=O)[C@@H](NC(=O)NC1(CS(=O)(=O)C(C)(C)C)CCCCC1)C1CCCCC1` (some centres unmarked) [Compound 244], the Ki was less than 75 nM.

For `C=CCCNC(=O)C(=O)C(CC1CCC1)NC(=O)[C@@H]1[C@@H]2[C@H](CN1C(=O)[C@@H](NC(=O)NC1(CS(C)(=O)=O)CCCCC1)C(C)(C)C)C2(C)C` (some centres unmarked) [Compound 220], the Ki was less than 75 nM.

For `CC(C)(C)[C@H](NC(=O)NC1(CS(=O)(=O)C(C)(C)C)CCCCC1)C(=O)N1C[C@H]2[C@@H]([C@H]1C(=O)NC(CC1CC1)C(=O)C(N)=O)C21CC1` (some centres unmarked) [Compound 264], the Ki is less than 75 nM.

As to `CCS(=O)(=O)CC1(NC(=O)N[C@H](C(=O)N2C[C@H]3[C@@H]([C@H]2C(=O)NC(CC2CCC2)C(=O)C(N)=O)C3(C)C)C(C)(C)C)CCCCC1` (some centres unmarked) [Compound 232], the Ki is less than 75 nM.

Turning to `C=CCNC(=O)C(=O)C(CCC)NC(=O)[C@@H]1[C@@H]2[C@H](CN1C(=O)[C@@H](NC(=O)NC1(CS(=O)(=O)Cc3ccco3)CCCCC1)C(C)(C)C)C2(C)C` (some centres unmarked) [Compound 236], the Ki was less than 75 nM.

For the molecule `CC1(C)C[C@H]2[C@H](CN(C(=O)[C@@H](NC(=O)NC3(CS(C)(=O)=O)CCCCC3)C3CCCCC3)[C@@H]2C(=O)NC(CC2CC2)C(=O)C(N)=O)O1` (some centres unmarked) [Compound 218], the Ki was less than 75 nM.

For the molecule `CC(C)(C)[C@H](NC(=O)NC1(CS(=O)(=O)c2cccc(OCc3ccccc3)c2)CCCCC1)C(=O)N1C[C@H]2[C@@H]([C@H]1C(=O)NC(CC1CC1)C(=O)C(N)=O)C2(C)C` (some centres unmarked) [Compound 198], the Ki is less than 75 nM.

The same assay, now with this note: Table 3A; cells that print a number instead of a class symbol; read-out: Ki* Range.
With `C=CCNC(=O)C(=O)[C@H](CCCC)NC(=O)[C@@H]1[C@@H]2[C@H](CN1C(=O)[C@@H](NC(=O)NC1(C3OCCS3(=O)=O)CCCCC1)C(C)(C)C)C2(C)C` (some centres unmarked) [Compound 883-c], the Ki is 3 nM.

Still in this assay, the particulars now being: Table 3A; class symbols; read-out: Ki* Range.
As to `CC1([C@H](NC(=O)NC2(CS(=O)(=O)C(C)(C)C)CCCCC2)C(=O)N2C[C@H]3[C@@H]([C@H]2C(=O)NC(CCC2CC2)C(=O)C(=O)NCC2CC2)C3(C)C)CCCCC1` (some centres unmarked) [Compound 419], the Ki is less than 75 nM.

As to `CCCC(NC(=O)[C@@H]1[C@@H]2[C@H](CN1C(=O)[C@@H](NC(=O)NC1(CS(=O)(=O)C(C)(C)C)CCCCC1)C1(C)CCCCC1)C2(C)C)C(=O)C(=O)NC(CC)CC` (some centres unmarked) [Compound 489], the Ki fell in the range of 75 to 250 nM.

`C=CCNC(=O)C(=O)[C@H](CC1CC1)NC(=O)[C@@H]1[C@@H]2[C@H](CN1C(=O)[C@@H](NC(=O)NC1(CS(=O)(=O)C(C)(C)COC3CCCCO3)CCCCC1)C1(C)CCCCC1)C2(C)C` (some centres unmarked) [Compound 749]: the Ki was less than 75 nM.

As for `C=CCNC(=O)C(=O)[C@H](CCCC)NC(=O)[C@@H]1[C@@H]2[C@H](CN1C(=O)[C@@H](NC(=O)NC1([C@@H]3CCS3(=O)=O)CCCCC1)C(C)(C)C)C2(C)C` [Compound 838], the Ki was less than 75 nM.

Take `CC1(C)CCC(NC(=O)N[C@H](C(=O)N2C[C@H]3[C@@H]([C@H]2C(=O)N[C@@H](CCC2CC2)C(=O)C(=O)NC2CC2)C3(C)C)C(C)(C)C)([C@H]2CCCS2(=O)=O)CC1` [Compound 883-dw]: the Ki is less than 75 nM.

Regarding `C#CCCC(NC(=O)[C@@H]1[C@@H]2[C@H](CN1C(=O)[C@@H](NC(=O)NC1(CS(=O)(=O)C(C)(C)C)CCCCC1)C(C)(C)C)C2(C)C)C(=O)C(=O)NCCC1CC1` (some centres unmarked) [Compound 495], the Ki is less than 75 nM.

Consider `C=CCNC(=O)C(=O)[C@H](CC1CC1)NC(=O)[C@@H]1[C@@H]2[C@H](CN1C(=O)[C@@H](NC(=O)NC1([C@H]3CC(C)(C)CCS3(=O)=O)CCCCC1)C(C)(C)C)C2(C)C` [Compound 883-i], for which the Ki is less than 75 nM.

Regarding `CCCC(NC(=O)[C@@H]1[C@@H]2[C@H](CN1C(=O)[C@@H](NC(=O)NC1(CS(=O)(=O)C(C)(C)C)CCCCC1)C1(C)CCCCC1)[C@@]2(C)COCc1ccccc1)C(=O)C(=O)NC1CC1` (some centres unmarked) [Compound 531], the Ki is less than 75 nM.

As to `CCCNC(=O)C(=O)[C@H](CC1CC1)NC(=O)[C@@H]1[C@@H]2[C@H](CN1C(=O)[C@@H](NC(=O)NC1(CS(=O)(=O)C(C)(C)CC)CCCCC1)C1(C)CCCCC1)C2(C)C` [Compound 883-db], the Ki is less than 75 nM.

As to `C#CCNC(=O)C(=O)[C@H](CCC1CC1)NC(=O)[C@@H]1[C@@H]2[C@H](CN1C(=O)[C@@H](NC(=O)NC1(CS(=O)(=O)C3CCCC3)CCCCC1)C(C)(C)C)C2(C)C` [Compound 855], the Ki was less than 75 nM.

In the case of `C=CCNC(=O)C(=O)C(CCC)NC(=O)[C@@H]1CC2(CN1C(=O)[C@@H](NC(=O)NC1(CS(=O)(=O)C(C)(C)C)CCCCC1)C1(C)CCCCC1)SCCS2` (some centres unmarked) [Compound 613], the Ki is less than 75 nM.

Regarding `C=CCNC(=O)C(=O)C(CC1CC1)NC(=O)[C@@H]1[C@@H]2[C@H](CN1C(=O)[C@@H](NC(=O)N[C@]1(CS(=O)(=O)C(C)(C)C)C[C@H]3C[C@H]3C1)C1(C)CCCCC1)C2(C)C` (some centres unmarked) [Compound 468], the Ki was 75 to 250 nM.

For the molecule `C=CCNC(=O)C(=O)C(CCCC)NC(=O)[C@@H]1[C@@H]2[C@H](CN1C(=O)[C@@H](NC(=O)NC1(CS(=O)(=O)C3(C)CCC4CC3C4(C)C)CCCCC1)C1CCCCC1)C2(C)C` (some centres unmarked) [Compound 431], the Ki is less than 75 nM.

For the molecule `CC(C)S(=O)(=O)CC1(NC(=O)N[C@H](C(=O)N2C[C@H]3[C@@H]([C@H]2C(=O)NC(CC2CC2)C(=O)C(=O)NC2CC2)C3(C)C)C2(C)CCCCC2)CCCCC1` (some centres unmarked) [Compound 449], the Ki is less than 75 nM.

As to `CCCC(NC(=O)[C@@H]1[C@@H]2[C@H](CN1C(=O)[C@@H](NC(=O)NC1(CS(=O)(=O)C(C)(C)C)CCCCC1)C1(C)CCCCC1)C2(C)C)C(=O)C(=O)NC1CC1` (some centres unmarked) [Compound 763], the Ki lay in the range of 75 to 250 nM.

Consider `CCCNC(=O)C(=O)[C@H](CC1CC1)NC(=O)[C@@H]1[C@@H]2[C@H](CN1C(=O)[C@@H](NC(=O)NC1(CS(=O)(=O)C3(C)CCOCC3)CCCCC1)C(C)(C)C)C2(Cl)Cl` [Compound 883-di], for which the Ki is less than 75 nM.

As to `CC1(C)C[C@H]2[C@H](CN(C(=O)[C@@H](NC(=O)NC3(CS(=O)(=O)C(C)(C)C)CCCCC3)C(C)(C)C)[C@@H]2C(=O)NC(CC2CCC2)C(=O)C(=O)NC2CC2)O1` (some centres unmarked) [Compound 556], the Ki fell in the range of 75 to 250 nM.

Regarding `CC(C)(C)[C@H](NC(=O)NC1(CS(=O)(=O)CC(F)(F)F)CCCCC1)C(=O)N1C[C@H]2[C@@H]([C@H]1C(=O)NC(CC1CC1)C(=O)C(=O)NC1CC1)C2(C)C` (some centres unmarked) [Compound 565], the Ki is less than 75 nM.

Turning to `CCCC(NC(=O)[C@@H]1[C@@H]2[C@H](CN1C(=O)[C@@H](NC(=O)NC(CCC)(CCC)CS(=O)(=O)C(C)(C)C)C1(C)CCCCC1)C2(C)C)C(=O)C(=O)NC1CC1` (some centres unmarked) [Compound 461], the Ki lay in the range of 75 to 250 nM.

With `C=CCNC(=O)C(=O)C(CC1CC1)NC(=O)[C@@H]1[C@H]2CC(C)(C)O[C@H]2CN1C(=O)[C@@H](NC(=O)NC1(CS(=O)(=O)C(C)(C)C)CCCCC1)C1CCCCC1` (some centres unmarked) [Compound 560], the Ki is less than 75 nM.

`CN(C)C(=O)[C@@H](NC(=O)CNC(=O)C(=O)C(CC1CC1)NC(=O)[C@@H]1[C@@H]2[C@H](CN1C(=O)[C@@H](NC(=O)NC1(CS(=O)(=O)C(C)(C)C)CCCCC1)C1(C)CCCCC1)C2(C)C)c1ccccc1` (stereo partly drawn) [Compound 415] ({X3-CO}-[Gly(1-Me-cHex)][Pro(3R,4S-CMe2)][X2]G[Phg]-NMe2): the Ki was 75 to 250 nM.

Regarding `CCCC[C@H](NC(=O)[C@@H]1[C@@H]2[C@H](CN1C(=O)[C@@H](NC(=O)NC1(CS(=O)(=O)C3(C)CCOCC3)CCCCC1)C(C)(C)C)C2(Cl)Cl)C(=O)C(=O)NC1CC1` [Compound 883-dt], the Ki is less than 75 nM.

Regarding `C=CCNC(=O)C(=O)C(CCC)NC(=O)[C@@H]1[C@@H]2[C@H](CN1C(=O)[C@@H](NC(=O)NC1(C3CCCS3(=O)=O)CCCCC1)C1(C)CCCCC1)C2(C)C` (some centres unmarked) [Compound 638], the Ki was less than 75 nM.

On to `C=CCNC(=O)C(=O)[C@H](CCCC)NC(=O)[C@@H]1[C@@H]2[C@H](CN1C(=O)[C@@H](NC(=O)NC1(CS(=O)(=O)C(C)(C)CO)CCCCC1)C(C)(C)C)C2(C)C` [Compound 775], for which the Ki is less than 75 nM.

As for `C=CCNC(=O)C(=O)C(CC1CC1)NC(=O)[C@@H]1[C@@H]2[C@H](CN1C(=O)[C@@H](NC(=O)NC1(CS(=O)(=O)C(C)(C)C)CCCCC1)C(C)(C)SC)C2(C)C` (some centres unmarked) [Compound 609], the Ki was less than 75 nM.

Staying with this assay, now noted: Table 4; read-out: Ki* range.
In the case of `C=CCNC(=O)C(=O)C(CCCC)NC(=O)[C@@H]1[C@@H]2[C@H](CN1C(=O)[C@@H](NC(=O)N[C@H](CS(=O)(=O)N(C)C(C)(C)C)C(C)(C)C)C(C)(C)C)C2(C)C` (some centres unmarked) [Compound 1007], the Ki is 75 to 250 nM.
